Source: PMC12136788
The other results are listed elsewhere or left out.

T1: UNK ZnF1-3 (human, UniProt Q9C0B0 31-174)
T1 sequence: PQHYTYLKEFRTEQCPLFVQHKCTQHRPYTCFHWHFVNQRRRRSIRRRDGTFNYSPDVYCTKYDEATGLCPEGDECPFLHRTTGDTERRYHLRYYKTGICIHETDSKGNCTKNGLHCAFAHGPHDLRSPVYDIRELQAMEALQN

B1: chr18:35732044:35732045:+_ENSMUSG00000037236_ENSMUST00000166793|perfect_dup|FALSE|FALSE (ssRNA)
RNA: GGGAGUUCUACAGUCCGACGAUCAAUUUGGGGCAAGUUCUCAGGAGUAAUCUUGUCCUCUGGAUAGCGACUCAGUUCAUCUAAGUCUCUAGCAGACAGACCAAAGCUGGCCAAAAUAUUACUGGCCUGGUCUGUAUCUCCACGCAACAGAGGAUUGAGCAUCA
B2: chr4:76721835:76721836:+_ENSG00000138768_ENST00000264904|hu_mus|hu_hu_hu_mus_True|8_68 (ssRNA)
RNA: GGGAGUUCUACAGUCCGACGAUCGUUUGGCUGGGGUUUCUGAGACGCUCUGGAAUAUAACUCAUGUUGCUAAUAAAAUCCUAGUUUCUCUAUGAAAUUCUCUUUGCCAAUCCUCUUCUCUAUUAGUGUUUUAGCUUUCUCUUUCAACAGAGGAUUGAGCAUCA
B3: chr10:118639881:118639882:-_ENSMUSG00000020114_ENSMUST00000020315|mus_mus|motif|central (ssRNA)
RNA: GGGAGUUCUACAGUCCGACGAUCAACAUCAGUGGCUUUACAACCUCUGGCUUAUGGAAAUACAGACUUCUGAAGUAAAAGCGGCAAAAACAACAAUGGAAGAAAGCCAAACAAACUUCCCGGGAAGGAAAGUAAAGUGGAACACAACAGAGGAUUGAGCAUCA
B4: chr17:45747064:45747065:+_ENSG00000108424_ENST00000290158|hu_hu|hu_hu_hu_mus_True|38_38 (ssRNA)
RNA: GGGAGUUCUACAGUCCGACGAUCGCCCACAGUCCACGCUGUUGUGUCUCGAACAACUACACUGGGGUCUUUCAUUAGUUCUAUUAGGGUGGGCAUAGCCUGUAUAACUAAUGGUUUCAGUUGAUUAGGCUCUGGUCCUUCCAACAACAGAGGAUUGAGCAUCA
B5: chr7:125832625:125832626:-_ENSMUSG00000033917_ENSMUST00000038791|mus_mus|FALSE|FALSE (ssRNA)
RNA: GGGAGUUCUACAGUCCGACGAUCAAGGUGGGACUCGUAGUAAUUCUUUUCAUCAAAGGUAUUGACAGUCCAACUCACAACCUGGAUUCCUUUAGCUGACCACUUCUUCAAAUAGUCCGGGGAGACAAAAUCCUUCUGCAUGAGCAACAGAGGAUUGAGCAUCA
B6: chr14:102368134:102368135:+_ENSG00000078304_ENST00000445439|hu_hu|hu_hu_hu_mus_True|88_88 (ssRNA)
RNA: GGGAGUUCUACAGUCCGACGAUCAAGAGGCUCCAUGAUCUUCACAAAUUCUGAUGGUUCAAUUACAUCUAAAAUUUCUUCUAAUUCAUUUAAGAACAUUACUUCUUUUGGACUGUGAGUCUUUGGCCAGUAUUUGAGAAGUGCCAACAGAGGAUUGAGCAUCA

These binders were tested against T1, UNK ZnF1-3 (assay: nsRBNS (natural sequence RNA bind-n-seq); RBNS binding buffer (assumed for nsRBNS): 25 mM Tris pH 7.5, 150 mM KCl, 3 mM MgCl2, 0.01% Triton X-100, 500 ug/ml BSA, 20 U/ml SUPERase-In, 4 C; UNK is unkempt and MSI1 is Musashi-1; names of the RNAs are library labels; protein concentration not given here; high values mean tight binding).

Binder	binding signal
B1	0.399 enrichment R
B2	0.679 enrichment R
B3	1.83 enrichment R
B4	0.507 enrichment R
B5	1.49 enrichment R
B6	0.715 enrichment R
